Assay results reported in PubChem BioAssay AID463173 (ICCB-Longwood Screening Facility, Harvard Medical School, 2010).
Screen size: about 52,000 compounds; about 4,300 (8.3%) were called active. Cut-off read from the data, not from the text of the source: active = survival mostly below about 52% (no sharp cut-off); inactive = mostly above about 56%. Some of the results follow.

Tested on: DeltatarO mutant
Test: growth inhibition of S. aureus wild type versus tarO mutant, primary screen, teichoic acid synthesis inhibitors, RN4220, OD600 (AID 463173)
Settings: OD600, 18 h, stronger effect = lower value, screened at 18.75 µg/mL (by protocol)

| SMILES | survival |
| --- | --- |
| O=C(c1ccc(F)cc1)N1c2nc(-c3ccco3)nn2C2(CCCCC2)[C@@H]2CCCC[C@@H]21 | inactive: 53% |
| CC1CCCN(S(=O)(=O)c2ccc(N)cc2)C1 (stereo unspecified) | inactive: 91% |
| CCOc1ccc(OCC)c(NS(=O)(=O)c2cc(Br)cc3c2N(C(C)=O)C(C)C3)c1 (stereo unspecified) | inactive: 65% |
| Cc1cc(=O)[nH]c(SC(C)C(=O)Nc2ccccc2)n1 (stereo unspecified) | inactive: 90% |
| CC(C)N(C(=O)CSc1nc2ccc(Cl)cc2[nH]1)c1ccccc1 | inactive: 107% |
| Nc1nc2cc3c(cc2s1)OCCO3 | inactive: 105% |
| Nc1cccc2c1C(=O)N(CC(=O)O)C2=O | inactive: 99% |
| CCN(CC)C(=O)CSc1nc(-c2ccccc2F)nc2c1Cc1c(CO)cnc(C)c1O2 | inactive: 101% |
| Cc1c(-c2ccc(Br)cc2)c(=O)oc2ccc(OC(=O)N3CCOCC3)cc12 | inactive: 86% |
| COc1ccc(OC)c(-c2nnc3n(Cc4ccc(C)cc4)c(=O)c4ccccc4n23)c1 | inactive: 88% |
| CC(C)(C)OC(=O)N1CCC(c2c(C(=O)N3CCCCC3)cnn2-c2ccc(Cl)cc2)CC1 | inactive: 66% |
| CCOc1cc(C(=O)NCCc2csc3nc(-c4ccc(C)cc4)nn23)cc(OCC)c1OCC | inactive: 94% |
| COC(=O)c1ccccc1NC(=O)CSc1nc2ccsc2c(=O)n1CCC(C)C | inactive: 88% |
| c1ccc(CSc2ncnc3c2cnn3-c2ccccc2)cc1 | inactive: 116% |
| CC(=O)c1cccc(NC(=O)c2sc(-n3nc(C)c(Cc4ccc5c(c4)OCO5)c3C)nc2C)c1 | inactive: 87% |
| CCOc1ccc(-c2cccc(NS(=O)(=O)c3c(C)cc(C)cc3C)c2)nn1 | inactive: 87% |
| COc1ccccc1CCNC(=O)C(=O)NCC(c1ccc2c(c1)OCO2)N1CCOCC1 (stereo unspecified) | inactive: 83% |
| Cc1ccc2oc3c(c(=O)c2c1)C(c1ccc(F)cc1)N(Cc1ccc2c(c1)OCO2)C3=O (stereo unspecified) | inactive: 77% |
| COc1cccc(CNC(=O)C(=O)Nc2c3c(nn2-c2ccccc2)CSC3)c1 | inactive: 84% |
| CCN(C(=O)C1CCN(S(=O)(=O)c2ccc3c(c2)CCCN3C(C)=O)CC1)c1cccc(C)c1 | inactive: 88% |
| Cc1c(Cl)cccc1NC(=O)Cn1c(CCC(=O)O)ccc1-c1cccs1 | inactive: 50% |
| CCOC(=O)c1c(NC(C)=O)c2c3c(sc2n1Cc1nc(-c2cccc(Cl)c2)oc1C)CCCC3 | inactive: 96% |
| CCOC(=O)c1c(S(=O)(=O)N2CCCC(C(=O)NCc3ccc(Cl)cc3)C2)c(C)n(C)c1C (stereo unspecified) | inactive: 73% |

| SMILES | survival |
| --- | --- |
| COc1ccc(F)cc1S(=O)(=O)NCCc1csc2nc(-c3cccc(C)c3)nn12 | inactive: 102% |
| COC(=O)c1ccc(OCC2c3cc(OC)c(OC)cc3CCN2C(=O)COc2ccc(Cl)cc2)cc1 (stereo unspecified) | inactive: 78% |
| O=C(c1ccccc1Cl)N1c2ncnn2C2(CCCCC2)[C@@H]2CCCC[C@@H]21 | inactive: 96% |
| Cc1cc(C)nc(SCC(=O)Nc2nc(=O)c3ccccc3s2)n1 | inactive: 73% |
| COc1ccc(Cc2nc3ccccc3[nH]c2=O)cc1 | inactive: 58% |
| C=Cc1ccc(Cn2c(C)c(CNCc3cccc(Br)c3)c(C(=O)O)c2C)cc1 | inactive: 73% |
| Cc1cccc(Cn2c(CNS(=O)(=O)c3ccc4c(c3)CCCC4)nc3cccnc32)c1 | inactive: 102% |
| CCCCN(C(=O)C1CCC1)c1nnc(-c2ccncc2)s1 | inactive: 96% |
| Cc1c(Cl)cccc1-c1ccc(C(=O)Nc2ccc(F)cc2)o1 | active: 1% |
| CCOC(=O)C1=C(C)NC(=O)NC1c1ccccc1 (stereo unspecified) | inactive: 70% |
| Cc1ccc(-n2c(=O)c3c(C)c(C(=O)N(C)C)sc3n(CC(=O)C(C)(C)C)c2=O)cc1C | inactive: 107% |
| CCc1ccc(-n2nc(C)c3c(C)cc(=O)n(CC(=O)N4CCCc5ccccc54)c32)cc1 | inactive: 82% |
| O=c1cc(-c2ccccc2)n2c(SCc3ccccc3)nnc2[nH]1 | inactive: 80% |
| Cc1ccc(C(=O)NCC(=O)O)o1 | inactive: 100% |
| Cc1c(C(=O)N(Cc2ccccc2F)C2CCS(=O)(=O)C2)oc2ccc(F)cc12 (stereo unspecified) | inactive: 95% |
| CCOC(=O)c1noc2ncn(CC(=O)Nc3ccc(C)c(F)c3)c(=O)c12 | inactive: 82% |
| Cc1cccc(NC(=O)CCS(=O)(=O)c2ccc3c(c2)n(C)c(=O)c(=O)n3C)c1C | inactive: 129% |
| CCOC(=O)C1CCCN(C(=O)c2nn(-c3ccc(OC)cc3)c(=O)c3c2c2ccccc2n3C)C1 (stereo unspecified) | inactive: 114% |
| Nc1nc(Nc2ccccc2F)sc1C(=O)c1ccc(Cl)cc1 | active: 2% |
| CCc1cccc(NC(=O)C2CCN(C(=O)c3cnn(-c4ccccc4)c3-n3cccc3)CC2)c1 | inactive: 61% |
| Cc1ccc(-n2nc(CO)c(C(=O)NCc3ccccn3)n2)cc1C | inactive: 111% |
| CC1CCn2c(nc3cc(C(=O)NCCc4ccc(Cl)cc4)ccc32)C1 (stereo unspecified) | inactive: 102% |
| COc1ccccc1/C=C/C(=O)N1CCC(C(N)=O)CC1 | inactive: 99% |

| SMILES | survival |
| --- | --- |
| C=CCNC(=O)c1ccccc1NC(=O)C1COc2ccccc2O1 (stereo unspecified) | inactive: 79% |
| c1ccc(CCCNc2ncccn2)cc1 | inactive: 102% |
| COc1ccc(N2CC(NC(=O)COc3ccccc3)CC2=O)cc1OC (stereo unspecified) | inactive: 90% |
| Cn1c(=O)c2c(nc(NCc3ccccc3)n2Cc2ccccc2)n(C)c1=O | active: 38% |
| Cn1c(=O)c2c(SCC(=O)NCc3ccco3)nc(-c3ccccc3)nc2n(C)c1=O | inactive: 76% |
| CCOC(=O)c1cnc2ccc(OC)cc2c1NCCc1ccccc1 | active: -2% |
| CN(c1ncnc2onc(-c3cccc(Cl)c3)c12)C1CCCCC1 | active: -17% |
| CCc1ccc(-n2nc3cc(C)c(NC(=O)c4cccc5ccccc45)cc3n2)cc1 | inactive: 76% |
| N#CC(Cc1cccnc1)C(=O)Nc1ccccc1 (stereo unspecified) | inactive: 94% |
| CN(CC(=O)Nc1cccc(C(F)(F)F)c1)S(=O)(=O)c1cccs1 | inactive: 81% |
| CCOc1ccc(S(=O)(=O)Nc2ccc3c(c2)N(C(C)=O)CCC3)cc1 | inactive: 72% |
| COC(=O)C(C)Sc1ncnc2c1c(-c1ccccc1)cn2-c1ccc(F)cc1 (stereo unspecified) | inactive: 76% |
| Cc1cccc(C)c1-n1ncc(C(=O)N2CCN(c3ccccc3)CC2)c1C1CCN(C(=O)OC(C)(C)C)CC1 | inactive: 94% |
| COc1cccc(CN(CCCN2CCOCC2)C(=O)c2cc3sccc3n2Cc2ccccc2)c1 | inactive: 70% |
| O=C(Cn1c(-c2cccs2)cc2ccccc21)NCCc1ccc(Cl)cc1 | inactive: 123% |
| CCOc1ccccc1NC(=O)c1cc2c(=O)oc3ccccc3c2s1 | inactive: 97% |
| COc1ccc2c(c1)C(c1ccc(N3CCOCC3)cc1)=NNC(c1cccnc1)=N2 | inactive: 92% |
| Cc1cncn1CCc1nc2c3ccccc3nc(SCC(=O)Nc3cccc(Cl)c3)n2n1 | inactive: 78% |
| O=C(c1ccc(CSc2nc3ccncc3n2Cc2cccc(F)c2)cc1)N1CCCCCC1 | inactive: 59% |
| COC(=O)c1cnc(N2CCN(c3ccccc3F)CC2)c2ccccc12 | inactive: 86% |
| Cc1ccc(NC(=O)C2CCN(c3nc4ccccc4[nH]3)CC2)c(C)c1 | inactive: 103% |
| Cc1ccc(Cn2c(=O)n(CCCC(=O)NCc3ccccc3Cl)c(=O)c3ccccc32)cc1 | inactive: 119% |
| COc1ccc(OC)c(NC(=O)c2c(NCc3cccs3)sc3c2CCCC3)c1 | inactive: 99% |

| SMILES | survival |
| --- | --- |
| CCc1ccccc1NC(=O)c1cc(S(=O)(=O)N2CCCC2)cn1C | inactive: 76% |
| Cc1cccc(N2CCN(C(=O)CCc3c(C)nc4ncnn4c3C)CC2)c1C | inactive: 79% |
| COCCN1C(=O)c2[nH]nc(-c3cc(C)ccc3O)c2C1c1ccc(C(C)C)cc1 (stereo unspecified) | active: 1% |
| COc1ccccc1NC(=O)NCCN1CCN(c2cccc(Cl)c2)CC1 | inactive: 77% |
| CC(C)c1cccc(C(C)C)c1NC1=NS(=O)(=O)c2ccccc21 | inactive: 76% |
| COc1ccc(C(=O)N(CC(=O)NC2CCCC2)C2CCCCC2)cc1OC | inactive: 75% |
| O=C(Cc1ccccc1)Nc1cccc(-c2cn3cccnc3n2)c1 | inactive: 91% |
| Cc1ccc(-c2nc(SCC(=O)NCc3ccco3)c3c(=O)n(C)c(=O)n(C)c3n2)cc1 | inactive: 85% |
| Cc1ccc(Nc2nnc(-c3ccc(C)c(S(=O)(=O)NCc4nc5ccccc5[nH]4)c3)c3ccccc23)cc1 | inactive: 77% |
| COc1ccc2[nH]c(=O)c(CN(Cc3cccs3)C(=O)c3cccs3)cc2c1 | inactive: 87% |
| CC(C)c1ccc(NC(=O)Cn2c(=O)n(CCc3ccccc3)c(=O)c3ccccc32)cc1 | inactive: 82% |
| CCc1cccc(CC)c1NC(=O)CN1C(=O)C(=O)c2ccccc21 | inactive: 70% |
| Cc1ccc(-c2nnc(Nc3cccc(O)c3)c3ccccc23)cc1S(=O)(=O)N1CCN(C)CC1 | inactive: 97% |
| CC1CCCCN1c1nnc(NC(=O)Nc2ccccc2F)s1 (stereo unspecified) | inactive: 63% |
| Cc1ccc(/C=C/c2nc3ccccc3[nH]2)cc1 | inactive: 67% |
| CCc1ccc(NC(=O)CCS(=O)(=O)c2ccc3c(c2)n(C)c(=O)c(=O)n3C)cc1 | inactive: 80% |
| CC(C)COc1ccc(C(=O)N(Cc2ccc(N(C)C)cc2)Cc2ccco2)cc1 | inactive: 71% |
| CCC(Cn1nnc2ccccc2c1=O)NC(=O)Nc1ccc(C)c(C)c1 (stereo unspecified) | inactive: 45% |
| CS(=O)(=O)CCC(C(=O)Nc1cccc(C(F)(F)F)c1)N1Cc2ccccc2C1=O (stereo unspecified) | active: 17% |
| O=C(c1ccco1)c1cn(CCOc2ccc(F)cc2)c2ccccc12 | inactive: 99% |
| CC1CCCN(C(=O)c2cc3c(Cl)nc4ccccc4c3s2)C1 (stereo unspecified) | active: -5% |
| Cc1ccc(OCc2nc3ccccc3n2CCOc2ccc(Cl)cc2)cc1 | active: 15% |
